This is a noisy data set.
Experiment: amyloid nucleation score relative to library mode (yeast Sup35 reporter selection) (log enrichment difference); higher = more amyloid nucleation; sequences are the first 22 residues of the Bri2 peptide extended by up to 12 random residues
Conditions: random library (experiment): 2;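 active = nucleation score significantly above 0 at FDR 0.05; inactive = not significantly above 0 or absent from output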
In the case of EASNCFAIRHFENKFAVETLICFMREEQFIRKRS, the amyloid nucleation score is reported as 0.654. In the case of EASNCFAIRHFENKFAVETLICVYWTSSRSYVQS, the amyloid nucleation score is reported as “inactive”. For EASNCFAIRHFENKFAVETLICLSLYYLR, the amyloid nucleation score was 4.98. For EASNCFAIRHFENKFAVETLICRCDDNPNQLLMV, the amyloid nucleation score was “inactive”. For EASNCFAIRHFENKFAVETLICINADNWCDLYSY, the amyloid nucleation score was 6.74. With EASNCFAIRHFENKFAVETLICRLCILVGRLRMR the amyloid nucleation score was “inactive”. For EASNCFAIRHFENKFAVETLICGPTAYAKCDVRM, the amyloid nucleation score was 2.25. With EASNCFAIRHFENKFAVETLICPLLGL the amyloid nucleation score was “inactive”. For EASNCFAIRHFENKFAVETLICVGREVV, the amyloid nucleation score was “inactive”. For EASNCFAIRHFENKFAVETLICRPNSVLRVRDTY, the amyloid nucleation score was “inactive”. For EASNCFAIRHFENKFAVETLICKTIEGCSANWRI, the amyloid nucleation score was “inactive”. Sequence EASNCFAIRHFENKFAVETLICNCMYFNYSMILC has an amyloid nucleation score of 4.68. With EASNCFAIRHFENKFAVETLICVMCTKYSRNCVT the amyloid nucleation score was “inactive”. EASNCFAIRHFENKFAVETLICVHVRNFNIWRRE showed an amyloid nucleation score of 5.24. EASNCFAIRHFENKFAVETLICKLTMDKFSFSQT gave an amyloid nucleation score of 4.04. With EASNCFAIRHFENKFAVETLICLTWISLYVVVLR the amyloid nucleation score was “inactive”. With EASNCFAIRHFENKFAVETLICVPSSDLTSCWIL the amyloid nucleation score was “inactive”. With EASNCFAIRHFENKFAVETLICFLEGLLRFRSSL the amyloid nucleation score was -0.405. Work on EASNCFAIRHFENKFAVETLICYNGANCFRSGNV yielded an amyloid nucleation score of 6.36. EASNCFAIRHFENKFAVETLICQSWFYGNVWRAV showed an amyloid nucleation score of -0.0953. Sequence EASNCFAIRHFENKFAVETLICCSQSCLSSVDKE has an amyloid nucleation score of 6.46. In the case of EASNCFAIRHFENKFAVETLICLGLRTNVHSSNI, the amyloid nucleation score is reported as 3.19. Work on EASNCFAIRHFENKFAVETLICNLCYSDFRSDVL yielded an amyloid nucleation score of 7.94. EASNCFAIRHFENKFAVETLICRLPNCFERFWPS gave an amyloid nucleation score of 4.16. In the case of EASNCFAIRHFENKFAVETLICFVTSLCYWELK, the amyloid nucleation score is reported as “inactive”. For EASNCFAIRHFENKFAVETLICYKLNGEV, the amyloid nucleation score was “inactive”. EASNCFAIRHFENKFAVETLICLNWLGVGCVYKR showed an amyloid nucleation score of 0.105. In the case of EASNCFAIRHFENKFAVETLICDRTNYIGKLEGE, the amyloid nucleation score is reported as “inactive”. With EASNCFAIRHFENKFAVETLICNIWQTFDCYVRV the amyloid nucleation score was “inactive”. For EASNCFAIRHFENKFAVETLICRHKTVSRCLTCG, the amyloid nucleation score was 0.111. For EASNCFAIRHFENKFAVETLICHRIPNFLCRFNR, the amyloid nucleation score was -0.182. For EASNCFAIRHFENKFAVETLICTDDCYTHVQVDW, the amyloid nucleation score was “inactive”. Sequence EASNCFAIRHFENKFAVETLICLFDIHFCNMRWG has an amyloid nucleation score of 6.93. With EASNCFAIRHFENKFAVETLICRYPGYVAIESLC the amyloid nucleation score was “inactive”. Sequence EASNCFAIRHFENKFAVETLICPCNLICGVNLGV has an amyloid nucleation score of 8.37.

Same assay, conditions: random library (experiment): 3
For EASNCFAIRHFENKFAVETLICVTFGRSGSCFAG, the amyloid nucleation score was 3.49. EASNCFAIRHFENKFAVETLICATCTGSGSMMLV showed an amyloid nucleation score of 6.27. With EASNCFAIRHFENKFAVETLICVFNLFANRWSVR the amyloid nucleation score was “inactive”. In the case of EASNCFAIRHFENKFAVETLICVELRRSRGHC, the amyloid nucleation score is reported as 0.279. With EASNCFAIRHFENKFAVETLICCMSMCKDSVRVG the amyloid nucleation score was “inactive”. For EASNCFAIRHFENKFAVETLICLLAV, the amyloid nucleation score was 0.00905. In the case of EASNCFAIRHFENKFAVETLICAILPVCFMFP, the amyloid nucleation score is reported as 2.81. With EASNCFAIRHFENKFAVETLICLQSMVKRGVGVS the amyloid nucleation score was “inactive”. With EASNCFAIRHFENKFAVETLICEQHELAFLRYLL the amyloid nucleation score was “inactive”. Work on EASNCFAIRHFENKFAVETLICFRCDLFSAFLLR yielded an amyloid nucleation score of 6.28. Work on EASNCFAIRHFENKFAVETLICLGNVVFSCGAEW yielded an amyloid nucleation score of 6.57. With EASNCFAIRHFENKFAVETLICEFGMYPKVAGRG the amyloid nucleation score was “inactive”. With EASNCFAIRHFENKFAVETLICMSQLGRAKKA the amyloid nucleation score was “inactive”. In the case of EASNCFAIRHFENKFAVETLICCMMVCSPTLVL, the amyloid nucleation score is reported as 4.05. Sequence EASNCFAIRHFENKFAVETLICLMCLV has an amyloid nucleation score of 7.19. Work on EASNCFAIRHFENKFAVETLICYLGSMNCLVQGR yielded an amyloid nucleation score of 5.41. In the case of EASNCFAIRHFENKFAVETLICGSEAGR, the amyloid nucleation score is reported as “inactive”. With EASNCFAIRHFENKFAVETLICPYERSGGPETKV the amyloid nucleation score was “inactive”. For EASNCFAIRHFENKFAVETLICFCAIELMTPCGR, the amyloid nucleation score was “inactive”. With EASNCFAIRHFENKFAVETLICFCRNPKLLGRVW the amyloid nucleation score was “inactive”. In the case of EASNCFAIRHFENKFAVETLICGSPT, the amyloid nucleation score is reported as “inactive”. With EASNCFAIRHFENKFAVETLICNVEA the amyloid nucleation score was “inactive”. In the case of EASNCFAIRHFENKFAVETLICFVYPHMTSTCPR, the amyloid nucleation score is reported as 6.02. For EASNCFAIRHFENKFAVETLICISDMLEGTNCTG, the amyloid nucleation score was “inactive”. EASNCFAIRHFENKFAVETLICMVRASRWAARWD gave an amyloid nucleation score of -0.142.
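Further: [psi-pin-] Saccharomyces cerevisiae expressing SupN fusions, induced by 100 µM Cu2SO4, selected 7 d at 30 °C without adenine and uracil, scored by deep sequencing of output versus input.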
